# This is a selection; strong and weak results do not stand in their true shares. At the low end of the ranking the order means little. This is one part of the list.
# Columns and labels:
# [1] = target: AGO2 WT (phosphosite mutant background) S387D + S824A + S828D + S831D + S834A (UniProt Q9UKV8); assay: RNA Bind-n-Seq (nitrocellulose filter binding and sequencing); conditions: constant regions annealed to DNA blockers; guide miR-122 5' phosphate; 30 mM Tris pH 8.0, 100 mM potassium acetate, 2 mM magnesium acetate, 0.5 mM TCEP, 0.005% NP-40, 0.01 mg/ml yeast tRNA; 3 nM AGO2-miR-122, 100 nM RNA library …; high values mean tight binding
# [2] = target: AGO2 F182del S387D + S824A + S828D + S831D + S834A + del182-182 (UniProt Q9UKV8); assay: as above; conditions: constant regions annealed to DNA blockers; guide miR-122 5' phosphate; 30 mM Tris pH 8.0, 100 mM potassium acetate, 2 mM magnesium acetate, 0.5 mM TCEP, 0.005% NP-40, 0.01 mg/ml yeast tRNA; 3 nM AGO2-miR-122, 100 nM RNA library …; high values mean tight binding
Sequence,binding signal (fold enrichment over input) [1],binding signal (fold enrichment over input) [2]
GAGUUCUACAGUCCGACGAUCCCAACACGUCUCACACCUGGAAUUCUCGGGUGCCAA / UGGAGUGUGACAAUGGUGUUUG / GATCGTCGGACTGTAGAACTC / TTGGCACCCGAGAATTCCA,0.177,1.38
GAGUUCUACAGUCCGACGAUCCCAACGUGCCUUACACCUGGAAUUCUCGGGUGCCAA / UGGAGUGUGACAAUGGUGUUUG / GATCGTCGGACTGTAGAACTC / TTGGCACCCGAGAATTCCA,0.126,0.0667
GAGUUCUACAGUCCGACGAUCCCAACGUGCUCCGCACCUGGAAUUCUCGGGUGCCAA / UGGAGUGUGACAAUGGUGUUUG / GATCGTCGGACTGTAGAACTC / TTGGCACCCGAGAATTCCA,0.149,0.426
GAGUUCUACAGUCCGACGAUCCCAACAUACCUUGCACCUGGAAUUCUCGGGUGCCAA / UGGAGUGUGACAAUGGUGUUUG / GATCGTCGGACTGTAGAACTC / TTGGCACCCGAGAATTCCA,0.086,0.0602
GAGUUCUACAGUCCGACGAUCCCAACAUAUUCCGCACCUGGAAUUCUCGGGUGCCAA / UGGAGUGUGACAAUGGUGUUUG / GATCGTCGGACTGTAGAACTC / TTGGCACCCGAGAATTCCA,0.0864,0.0511
GAGUUCUACAGUCCGACGAUCCCAACACAUCCUACACCUGGAAUUCUCGGGUGCCAA / UGGAGUGUGACAAUGGUGUUUG / GATCGTCGGACTGTAGAACTC / TTGGCACCCGAGAATTCCA,0.139,0.299
GAGUUCUACAGUCCGACGAUCCCAACAUAUUUCACACCUGGAAUUCUCGGGUGCCAA / UGGAGUGUGACAAUGGUGUUUG / GATCGTCGGACTGTAGAACTC / TTGGCACCCGAGAATTCCA,0.141,1.09
GAGUUCUACAGUCCGACGAUCCCAACGUGUCCUACACCUGGAAUUCUCGGGUGCCAA / UGGAGUGUGACAAUGGUGUUUG / GATCGTCGGACTGTAGAACTC / TTGGCACCCGAGAATTCCA,0.101,0.0686
GAGUUCUACAGUCCGACGAUCCCAACGCGUUUUGCACCUGGAAUUCUCGGGUGCCAA / UGGAGUGUGACAAUGGUGUUUG / GATCGTCGGACTGTAGAACTC / TTGGCACCCGAGAATTCCA,0.0947,0.032
GAGUUCUACAGUCCGACGAUCCCAACAUGCCCUGCACCUGGAAUUCUCGGGUGCCAA / UGGAGUGUGACAAUGGUGUUUG / GATCGTCGGACTGTAGAACTC / TTGGCACCCGAGAATTCCA,0.0881,0.0408
GAGUUCUACAGUCCGACGAUCCCAACGUAUUUCGCACCUGGAAUUCUCGGGUGCCAA / UGGAGUGUGACAAUGGUGUUUG / GATCGTCGGACTGTAGAACTC / TTGGCACCCGAGAATTCCA,0.0879,0.0439
GAGUUCUACAGUCCGACGAUCCCAACACAUCUCACACCUGGAAUUCUCGGGUGCCAA / UGGAGUGUGACAAUGGUGUUUG / GATCGTCGGACTGTAGAACTC / TTGGCACCCGAGAATTCCA,0.206,2.74
GAGUUCUACAGUCCGACGAUCCCAACGCACCUCGCACCUGGAAUUCUCGGGUGCCAA / UGGAGUGUGACAAUGGUGUUUG / GATCGTCGGACTGTAGAACTC / TTGGCACCCGAGAATTCCA,0.0966,0.0977
GAGUUCUACAGUCCGACGAUCCCAACAUGUCCUGCACCUGGAAUUCUCGGGUGCCAA / UGGAGUGUGACAAUGGUGUUUG / GATCGTCGGACTGTAGAACTC / TTGGCACCCGAGAATTCCA,0.0771,0.0462
GAGUUCUACAGUCCGACGAUCCCAACACGUCCCACACCUGGAAUUCUCGGGUGCCAA / UGGAGUGUGACAAUGGUGUUUG / GATCGTCGGACTGTAGAACTC / TTGGCACCCGAGAATTCCA,0.127,0.446
GAGUUCUACAGUCCGACGAUCCCAACACGCCCCGCACCUGGAAUUCUCGGGUGCCAA / UGGAGUGUGACAAUGGUGUUUG / GATCGTCGGACTGTAGAACTC / TTGGCACCCGAGAATTCCA,0.106,0.0737
GAGUUCUACAGUCCGACGAUCCCAACGCGCCCCGCACCUGGAAUUCUCGGGUGCCAA / UGGAGUGUGACAAUGGUGUUUG / GATCGTCGGACTGTAGAACTC / TTGGCACCCGAGAATTCCA,0.12,0.0509
GAGUUCUACAGUCCGACGAUCCCAACACGUCCUGCACCUGGAAUUCUCGGGUGCCAA / UGGAGUGUGACAAUGGUGUUUG / GATCGTCGGACTGTAGAACTC / TTGGCACCCGAGAATTCCA,0.0973,0.0803
GAGUUCUACAGUCCGACGAUCCCAACGCGCUCUGCACCUGGAAUUCUCGGGUGCCAA / UGGAGUGUGACAAUGGUGUUUG / GATCGTCGGACTGTAGAACTC / TTGGCACCCGAGAATTCCA,0.103,0.0652

# Source: publication PMC12529666
